# According to PubChem BioAssay AID504333 (National Center for Advancing Translational Sciences (NCATS), 2011):
# The campaign covered roughly 360,000 compounds. About 16,000 (4.4%) were called active. Inconclusive means that the source gave no clear call. Such entries were picked first, then a sample of the others. The call rests on the fitted dose curve; in most records, active means well fitted inhibition curve with a large enough effect; inconclusive means small, poorly fitted or top-dose-only effect; inactive means no such curve, though single readings can be large or run the other way. Potencies of inconclusive entries are doubtful fits and often do not repeat.
# Molecular target: Bromodomain adjacent to zinc finger domain protein 2B (Homo sapiens) (UniProt Q9UIF8)
# UniProt Q9UIF8, sequence (Q9UIF8 whole entry, looked up, the tested form may be a part): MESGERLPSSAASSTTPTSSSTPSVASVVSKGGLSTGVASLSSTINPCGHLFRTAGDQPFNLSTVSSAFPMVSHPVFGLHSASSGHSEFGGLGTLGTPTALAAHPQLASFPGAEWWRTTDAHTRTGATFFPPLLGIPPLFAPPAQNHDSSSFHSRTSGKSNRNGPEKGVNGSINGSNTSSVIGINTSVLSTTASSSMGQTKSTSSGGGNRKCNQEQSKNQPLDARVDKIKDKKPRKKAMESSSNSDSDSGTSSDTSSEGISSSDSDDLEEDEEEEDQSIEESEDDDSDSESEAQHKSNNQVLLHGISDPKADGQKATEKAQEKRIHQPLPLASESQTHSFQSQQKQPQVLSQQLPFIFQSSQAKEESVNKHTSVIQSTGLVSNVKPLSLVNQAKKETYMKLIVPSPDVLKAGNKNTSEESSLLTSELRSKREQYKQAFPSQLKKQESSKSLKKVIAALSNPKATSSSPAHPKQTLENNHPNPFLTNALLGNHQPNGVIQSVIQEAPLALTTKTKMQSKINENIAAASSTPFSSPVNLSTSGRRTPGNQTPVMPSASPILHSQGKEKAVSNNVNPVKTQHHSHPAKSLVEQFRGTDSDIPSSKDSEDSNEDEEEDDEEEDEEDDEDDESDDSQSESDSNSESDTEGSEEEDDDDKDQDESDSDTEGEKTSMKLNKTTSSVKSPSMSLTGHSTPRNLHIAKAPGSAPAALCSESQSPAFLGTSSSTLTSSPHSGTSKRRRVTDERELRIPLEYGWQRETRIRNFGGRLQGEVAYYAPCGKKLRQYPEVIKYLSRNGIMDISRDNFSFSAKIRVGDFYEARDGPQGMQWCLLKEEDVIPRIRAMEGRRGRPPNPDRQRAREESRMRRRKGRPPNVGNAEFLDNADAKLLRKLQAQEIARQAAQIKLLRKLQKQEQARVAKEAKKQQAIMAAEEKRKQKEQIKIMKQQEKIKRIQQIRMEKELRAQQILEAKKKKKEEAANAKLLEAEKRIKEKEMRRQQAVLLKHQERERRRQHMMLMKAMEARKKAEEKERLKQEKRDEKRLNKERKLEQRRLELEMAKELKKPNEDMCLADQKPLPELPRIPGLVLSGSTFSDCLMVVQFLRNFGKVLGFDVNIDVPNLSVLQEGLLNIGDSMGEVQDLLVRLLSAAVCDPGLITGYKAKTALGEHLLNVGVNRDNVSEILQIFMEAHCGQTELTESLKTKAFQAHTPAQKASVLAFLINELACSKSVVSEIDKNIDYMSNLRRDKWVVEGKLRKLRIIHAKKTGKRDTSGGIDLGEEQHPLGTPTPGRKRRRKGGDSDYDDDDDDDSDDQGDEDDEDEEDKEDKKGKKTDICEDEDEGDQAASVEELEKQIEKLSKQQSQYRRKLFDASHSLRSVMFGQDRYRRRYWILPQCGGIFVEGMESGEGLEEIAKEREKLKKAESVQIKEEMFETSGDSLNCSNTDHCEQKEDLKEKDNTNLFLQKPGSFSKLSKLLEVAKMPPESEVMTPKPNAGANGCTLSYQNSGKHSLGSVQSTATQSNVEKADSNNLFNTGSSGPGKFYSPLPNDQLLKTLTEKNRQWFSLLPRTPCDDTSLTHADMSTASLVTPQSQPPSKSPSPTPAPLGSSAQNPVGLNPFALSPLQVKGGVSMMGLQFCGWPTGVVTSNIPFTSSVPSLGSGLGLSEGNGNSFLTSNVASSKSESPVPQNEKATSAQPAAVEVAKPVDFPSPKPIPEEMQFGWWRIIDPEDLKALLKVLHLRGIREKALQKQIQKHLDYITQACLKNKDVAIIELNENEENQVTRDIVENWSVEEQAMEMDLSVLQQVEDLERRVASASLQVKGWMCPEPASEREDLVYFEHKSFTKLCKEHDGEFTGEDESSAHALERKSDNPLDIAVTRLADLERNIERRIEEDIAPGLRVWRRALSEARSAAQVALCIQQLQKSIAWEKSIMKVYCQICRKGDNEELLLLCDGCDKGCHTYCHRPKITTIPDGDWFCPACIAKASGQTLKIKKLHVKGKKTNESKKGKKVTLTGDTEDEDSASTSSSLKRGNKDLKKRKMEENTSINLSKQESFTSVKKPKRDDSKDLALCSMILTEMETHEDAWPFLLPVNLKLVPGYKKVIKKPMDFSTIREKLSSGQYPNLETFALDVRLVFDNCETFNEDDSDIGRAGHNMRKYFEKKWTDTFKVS
# Experiment: qHTS Assay for Inhibitors of BAZ2B; further: nearly all actives have a fitted effect of over 60% in size
# Conditions: AlphaScreen BAZ2B-H3K14Ac peptide displacement; activity change, negative = inhibition: at 114 µM (top of the series) unless noted
# In short: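 Protein-peptide AlphaScreen: BAZ2B 50 nM, b-H3K14Ac 50 nM, 1x PBS pH 7.4 + 0.01% Tween-20. Preincubation 30 min RT; cpd 30 min RT (top 110 uM); beads 20 min RT, light-protected.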
# On the % scale 0 is the no-effect control and ±100 the full control effect; potency means the concentration at half of the fitted maximal effect; tags describe the fitted curve by direction and shape.
Compound,Potency,"activity change, negative = inhibition"
CNC(=O)c1ccc(-c2nc(CN3CCc4ccccc43)c(C)o2)cc1,"inconclusive: 50.1 µM [inhibitor, partial curve]",–
CC(=O)NCc1ccc(C(=O)CCl)s1,"inconclusive: 89.1 µM [inhibitor, single point]",–
O=C(Nc1ccc2c(c1)OCO2)C(c1ccc(Cl)cc1)N1CCC2(CC1)OCCO2 (configuration not stated),"inconclusive: 44.7 µM [inhibitor, partial curve]",–
COc1cc(C)c(CNC2CCCCC2)cc1C,"inconclusive: 50.1 µM [inhibitor, single point]",–
CC1CC(C)(C)NC(=S)N1CCC(=O)N1CCc2ccccc21 (configuration not stated),–,inactive: -11.8%
CCN(CC)C(=O)/C=C/c1ccc(OC)c(S(=O)(=O)N2CCCCC2)c1,"inconclusive: 79.4 µM [inhibitor, partial curve]",–
CN1C(=O)/C(=C\c2ccc(OC(=O)c3ccco3)cc2)SC1=S,"inconclusive: 89.1 µM [inhibitor, single point]",–
Cc1c(C2=CCN(S(=O)(=O)c3ccc(Cl)cc3)CC2)c2ccccc2n1CC(=O)N1CCCC1,"inconclusive: 89.1 µM [inhibitor, single point]",–
CC(=O)c1c(C)[nH]c(C(=O)OCC(=O)Nc2cc(C(F)(F)F)ccc2N2CCOCC2)c1C,"inconclusive: 100 µM [inhibitor, single point]",–
CN(CC(=O)Nc1ccccc1Br)C(=O)c1ccncc1,"inconclusive: 39.8 µM [inhibitor, partial curve]",–
COc1ccc(OC)c(NS(=O)(=O)Cc2ccccc2)c1,"inconclusive: 39.8 µM [inhibitor, full curve]",–
O=C(Oc1ccc(C(=S)N2CCOCC2)cc1Cl)c1ccccc1F,–,inactive: -31.4%
CCOC(=O)c1cccc(NC(=O)CC2C(=O)N(c3ccccc3)C(=O)N2Cc2ccco2)c1 (configuration not stated),"inconclusive: 89.1 µM [inhibitor, single point]",–
COc1ccc([C@]23Cc4ccccc4C(O2)c2c(c4ccc(OC)cc4oc2=O)O3)cc1,"inconclusive: 14.1 µM [inhibitor, partial curve]",–
COc1ccc(-c2cc(C(F)(F)F)n3nc(C(=O)OC(C)C)cc3n2)cc1,–,inactive: 14.6%
Cc1ccc(-n2c(=S)[nH]c3[nH]ncc3c2=O)cc1,"inconclusive: 89.1 µM [inhibitor, single point]",–
COc1ccc(N2CCN(C(=O)c3ccc(Br)o3)CC2)cc1,"inconclusive: 50.1 µM [inhibitor, partial curve]",–
CCOc1cc(C2C(C(C)=O)=C(O)C(=O)N2CCc2c[nH]c3ccccc23)ccc1O (configuration not stated),–,inactive: -32.3%
COc1cnc(-c2ccccn2)nc1NC(C)C,active: 3.16 µM,–

Compound,Potency,"activity change, negative = inhibition"
O=C1CC(c2ccc(O)c(O)c2)Oc2c1ccc(O)c2O (configuration not stated),active: 10 µM,–
CC(C)(C)c1cc(C(=S)N2CCCC2)cc(C(C)(C)C)c1O,"inconclusive: 89.1 µM [inhibitor, single point]",–
Cc1nc(SC(C)C(=O)NCC2CCCO2)c2cc(-c3ccccc3)sc2n1 (configuration not stated),–,inactive: -8.48%
Cc1cccc(-c2cc(C(=O)Nc3cccnc3)c3ccccc3n2)c1,"inconclusive: 79.4 µM [inhibitor, single point]",–
C=CCNC(=O)c1c(C(F)(F)F)nn(C)c1Cl,–,inactive: 0.372%
Cc1ccccc1C(=O)NCC(c1ccc(N(C)C)cc1)N1CCCC1 (configuration not stated),"inconclusive: 39.8 µM [inhibitor, partial curve]",–
CC(=O)N1CCN(CC(=O)Nc2cc([N+](=O)[O-])ccc2Cl)CC1,–,inactive: 2.61%
C=CCc1ccc(OCCOCCN(C)C)c(OC)c1,"inconclusive: 28.2 µM [inhibitor, single point]",–
COc1cc(OC)c(NC(=O)/C=C/C(=O)O)cc1Cl,"inconclusive: 79.4 µM [inhibitor, single point]",–
Nc1nc(=S)n(-c2ccccc2)[nH]1,"inconclusive: 89.1 µM [inhibitor, single point]",–
COc1ccccc1Nc1nc(-c2c(C)nc3ncccn23)cs1,"inconclusive: 79.4 µM [inhibitor, single point]",–
CSc1ccc(/C=N/N2CCN(C)CC2)cc1,"inconclusive: 70.8 µM [inhibitor, single point]",–
CCSC1=C(C#N)C2(CCCC2)C(C#N)=C(N)N1,–,inactive: -3.31%
Fc1ccccc1Nc1n[nH]c(=S)s1,active: 50.1 µM,–
O=C(Nc1cccc([N+](=O)[O-])c1)N1CCN(c2ccccc2)CC1,"inconclusive: 56.2 µM [inhibitor, partial curve]",–
C=CCn1c(N)c(C(=O)NCCC2=CCCCC2)sc1=S,active: 39.8 µM,–
Cc1cccc(N2CCN(CC(=O)NCC3CCCCC3)CC2)c1C,active: 50.1 µM,–
O=C(Oc1ccccc1Cl)c1ccccc1P(=O)(O)O,"inconclusive: 89.1 µM [inhibitor, single point]",–
